# Data published in paper PMC4336329 (PLoS ONE, 2015).
# The whole screen tested about 310,000 compounds, of which about 2,200 (0.71%) showed an effect of 50% or more. The effect is printed as a negative number. The list shows a part of the results.
# Biological target: human ether-à-go-go-related gene (hERG) potassium channel (human, UniProt Q12809)
# Experiment: primary screen, population patch clamp on CHO cells stably expressing hERG
# Sequence of human ether-à-go-go-related gene (hERG) potassium channel (Q12809 whole entry, looked up): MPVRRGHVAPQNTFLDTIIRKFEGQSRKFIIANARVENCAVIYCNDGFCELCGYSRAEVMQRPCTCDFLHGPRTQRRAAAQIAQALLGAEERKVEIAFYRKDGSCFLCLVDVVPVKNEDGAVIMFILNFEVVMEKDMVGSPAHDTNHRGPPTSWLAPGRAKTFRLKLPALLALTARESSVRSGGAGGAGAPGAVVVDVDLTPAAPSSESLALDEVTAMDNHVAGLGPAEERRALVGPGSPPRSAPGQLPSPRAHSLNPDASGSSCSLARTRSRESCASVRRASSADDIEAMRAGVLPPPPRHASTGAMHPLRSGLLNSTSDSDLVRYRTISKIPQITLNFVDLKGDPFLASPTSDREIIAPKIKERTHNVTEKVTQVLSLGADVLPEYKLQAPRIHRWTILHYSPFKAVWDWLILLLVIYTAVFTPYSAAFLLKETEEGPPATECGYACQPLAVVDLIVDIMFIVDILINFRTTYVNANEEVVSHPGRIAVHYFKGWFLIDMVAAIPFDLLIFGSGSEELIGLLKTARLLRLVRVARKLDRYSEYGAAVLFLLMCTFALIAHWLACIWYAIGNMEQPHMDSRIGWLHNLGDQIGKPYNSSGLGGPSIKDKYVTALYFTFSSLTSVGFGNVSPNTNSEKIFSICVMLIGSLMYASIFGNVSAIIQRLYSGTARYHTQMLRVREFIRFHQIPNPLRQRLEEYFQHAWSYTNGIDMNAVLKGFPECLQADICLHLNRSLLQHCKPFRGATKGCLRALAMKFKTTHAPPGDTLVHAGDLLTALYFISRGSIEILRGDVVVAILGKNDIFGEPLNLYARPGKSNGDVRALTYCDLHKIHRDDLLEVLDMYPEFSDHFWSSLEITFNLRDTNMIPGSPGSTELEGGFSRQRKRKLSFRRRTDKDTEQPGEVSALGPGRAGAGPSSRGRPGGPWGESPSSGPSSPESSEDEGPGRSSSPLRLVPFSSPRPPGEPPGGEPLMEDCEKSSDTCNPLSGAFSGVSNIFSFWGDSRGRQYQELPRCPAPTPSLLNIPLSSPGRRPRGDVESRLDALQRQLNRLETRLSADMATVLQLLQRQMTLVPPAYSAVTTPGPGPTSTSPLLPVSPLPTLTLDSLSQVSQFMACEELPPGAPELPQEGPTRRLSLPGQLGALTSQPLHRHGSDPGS
row,SMILES,"hERG current change (%, negative = inhibition) at 1uM [%]"
1,CC1CCCCN1CCCn1c(=S)[nH]c2ccccc2c1=O (centres unmarked),-9.91
2,CN(C)CCCNc1c2ccccc2nc2ccccc12,3.34
3,Nc1nnc(SCc2ccc(F)cc2)n1-c1ccccc1,5.65
4,FC(F)(F)c1cccc(CNc2ncccc2-c2nc3cc(Cl)ccc3o2)c1,9.75
5,CC1CCC(NC(=O)CNC(=O)c2cccs2)CC1 (centres unmarked),5.84
6,Cc1cc(C)n(CCCNC(=O)C2CC(=O)N(Cc3ccccc3)C2)n1 (centres unmarked),10.6
7,COc1cc(C(=O)NCc2ncccc2C)ccc1OC1CCN(C(C)=O)CC1,8.75
8,COc1ccc(OCCSc2nnc3sc4ccccc4n23)cc1,5.24
9,COCCN1C(=O)C(=O)/C(=C(/O)c2cccc(OC)c2)C1c1ccncc1 (centres unmarked),19.8
10,Cc1ccc(SCC(=O)NN2C(=O)c3ccccc3C2=O)cc1,3.38
11,CCOc1c(Cl)cc(C2NC(=O)NC(C)=C2C(=O)NCc2ccccc2)cc1OC (centres unmarked),-6.99
12,CSc1ccccc1NC(=O)c1cnc2sc(C)cn2c1=O,2.93
13,O=C(CCNS(=O)(=O)c1cccs1)N1CCCCCC1,13.9
14,COCn1c(-c2ccc(OC)c(OC)c2)nc2ccccc21,4.61
15,CCCn1c(SCC(=O)c2cc(OC)ccc2OC)nnc1-c1ccco1,3.46
16,CCc1nc2ccccc2c2nc3ccccc3n12,12.7
17,CCc1ccccc1OCCCCN1CCCC1.O=C(O)C(=O)O,-2.73
18,O=C(/C=C\c1ccc2c(c1)OCO2)CC1(O)C(=O)Nc2ccccc21 (centres unmarked),2.9
19,O=C(CN1C(=O)S/C(=C\C=C\c2ccccc2)C1=O)Nc1ccccc1C(=O)O,6.86
20,Cl.OC(CN1CCCCCC1)CN(c1ccccc1)c1ccccc1 (centres unmarked),-24.1
21,CCOC(=O)Cc1cc(=O)n2[nH]c(-c3ccccc3)cc2n1,2.92
22,CCOc1ccc(C(=O)COC(=O)C2COc3ccccc3O2)cc1 (centres unmarked),5.82
23,N#CCCN(C(=O)COC(=O)CCNS(=O)(=O)c1ccccc1)c1ccccc1,9.81

row,SMILES,"hERG current change (%, negative = inhibition) at 1uM [%]"
1,C=CCN1C(=O)NC(=O)C(CCc2ccncc2)(CCc2ccncc2)C1=O,-12.3
2,CCc1nc2ccccc2n1CCC(C)C,5.08
3,COCC(=O)NCc1nc2ccccc2[nH]1,0.105
4,Cc1cc(NC(=O)C(C)SCC(=O)N(C)CC(=O)Nc2ccc(Br)cc2C)no1 (centres unmarked),10.5
5,CC(C)c1cc(C(C)C)n2nc(N)nc2n1,2.59
6,COc1ccc(-n2ncc(N(C)n3cccc3)c(Cl)c2=O)cc1,9.05
7,O=C(NCc1ccncc1)C(=O)NCC(c1ccco1)N1CCN(c2ccccc2)CC1 (centres unmarked),3.03
8,COc1ccccc1N1CC(C)(C)C(=O)N(C(=O)c2c(F)cccc2Cl)C1=S,27.1
9,CCCCNC(=O)C(C#N)c1nc2ccccc2nc1N1CCN(c2ccccc2F)CC1 (centres unmarked),8.32
10,CC(Sc1nnc(-c2ccco2)n1C)C(=O)N1C(C)CCCC1C (centres unmarked),9.38
11,Cn1ncc2c(Sc3ccc(Cl)cc3)ncnc21,13.6
12,COc1ccc(NS(=O)(=O)c2csc(C(=O)N3CCCC3)c2)cc1,6.63
13,Cl.Fc1ccc(-c2csc(Nc3ccccn3)n2)c(F)c1,21.6
14,O=C(OCC(=O)N1CCc2ccccc21)[C@@H]1CCCN1S(=O)(=O)c1ccccc1F,-0.207
15,CC(C)CCNC(=O)CN(Cc1ccccc1)C(=O)CCC(=O)Nc1nccs1,4.61
16,Cc1ccc(NC(=O)COC(=O)c2ccccc2-c2nc3ccccc3s2)c(C)c1,18.9
17,Clc1ccc(SCc2cc(-c3ccc(Cl)cc3)on2)cc1,6.59
18,Cc1c(C(=O)OCC(=O)N2CCCC(C)C2)oc2ccccc12 (centres unmarked),13.8
19,CC1CCN(c2ccccc2NC(=S)NC(=O)C(C)(C)C)CC1,12.3
20,COC(=O)C1=C(C)OC(N)=C(C#N)C1c1cc(OC)c(OCC(N)=O)cc1Cl (centres unmarked),-4.39
21,O=C(NCC1(N2CCOCC2)CCCCC1)c1ccc(S(=O)(=O)Nc2ccccc2F)cc1,9.54
22,O=C(NC(C(=O)c1ccccc1)n1c(=O)cc[nH]c1=S)c1ccccc1 (centres unmarked),6.94
23,O=C(N/C(=C/c1cccc([N+](=O)[O-])c1)C(=O)N1CCOCC1)c1ccc(Br)cc1,-19.6

row,SMILES,"hERG current change (%, negative = inhibition) at 1uM [%]"
1,COc1cc(OC)c(NC(=O)CN(C)S(=O)(=O)c2ccc3[nH]c(=O)oc3c2)cc1Cl,2.68
2,CC1CCCC(C)N1CCCNC(=O)C(=O)Nc1ccc2nc3n(c(=O)c2c1)CCCCC3 (centres unmarked),10.1
3,CCC(C)N1C(=O)CCC1C(=O)N1CCN(c2ccccc2F)CC1 (centres unmarked),17
4,O=c1[nH]nc(Cc2ccccn2)c2ccccc12,-4.97
5,COc1cc(CN=Cc2c(O)n(C(C)(C)C)c(=O)[nH]c2=O)cc(OC)c1,9.75
6,CCOC(=O)c1ccc(N2C(=O)c3n[nH]c(C)c3C2c2ccco2)cc1 (centres unmarked),-2.9
7,CCC(=O)Nc1ccc(/C(C)=N/NC(=O)c2c(Br)c(C)nn2C)cc1,13.3
8,CCN(Cc1nc(-c2ccccc2)no1)C(=O)c1ccoc1C,15.6
9,CC1CC(NC2=NCCS2)CC(C)(C)C1 (centres unmarked),5.88
10,CCc1cccc2c(C(=O)COC(=O)c3nn(C)c(=O)c4ccccc34)c[nH]c12,4.05
11,CC(=O)c1ccc(NC(=O)CSC(C)C)cc1,-5.93
12,COc1cc(S(=O)(=O)NCc2ccncc2)c(OC)cc1Br,-4.83
13,CCCNC(=O)c1ccccc1NC(=O)c1ccccc1SC,13
14,O=C(Cc1ccc(Cl)c(Cl)c1)N1CCOCC1,18.5
15,O=C(c1ccc2c3c(cccc13)CC2)C1CCCN(Cc2ncc[nH]2)C1 (centres unmarked),2.15
16,Cc1ccc(NC(=O)/C(C#N)=C(\N)C(Cl)(Cl)Cl)nc1,10.3
17,COc1cccc(Cn2nnc(C(=O)NCc3ccccc3Cl)c2N)c1,7.58
18,C#CCOCCOCCOCCNc1nc(N2CCN(C(=O)[C@H](CCCCN)n3cc([C@@H](N)C(C)CC)nn3)CC2)nc(N2CCN(C(=O)[C@H](Cc3ccc(O)cc3)n3cc([C@@H](N)CC(C)C)nn3)CC2)n1.Cl (some centres unmarked),-6.15
19,O=C(Nc1ccc(Cl)cc1F)c1cccc2ccccc12,12.8
20,CN(C1=NC(=O)CS1)c1ccc(O)cc1,-3.57
21,COC(c1ccc(Cl)cc1)(c1ccc(Cl)cc1)C(Oc1nc(C)cc(C)n1)C(=O)O (centres unmarked),11.1
22,O=C(COc1ccc2c3c(c(=O)oc2c1)CCCC3)NCc1ccncc1,10.2
23,CN1CCN(c2nc3ccccn3c(=O)c2/C=C(\C#N)S(=O)(=O)c2ccc(Cl)cc2)CC1,-4.87

row,SMILES,"hERG current change (%, negative = inhibition) at 1uM [%]"
1,COc1cccc(CN(C)C(=O)c2cccc(OCc3ccccc3)c2)c1,12.3
2,CCOc1cccc(CN2CCCC(N3CCc4cc(OC)c(OC)cc4C3)C2)c1O (centres unmarked),13.3
3,Cc1ccc(S(=O)(=O)NCC(c2ccccc2)N2CCN(CCC#N)CC2)cc1 (centres unmarked),6.5
4,Cc1ccc2[nH]c(C)c(CCN(Cc3cccnc3)C(=S)NC(C)(C)C)c2c1,6.78
5,Cc1cnc(C)c(N(C)NC(=S)Nc2ccccc2)n1,-3.38
6,Clc1cccc(C2NCc3ccccc3-n3cccc32)c1 (centres unmarked),18.2
7,COc1cccc(NC(=O)C2CCCN2S(=O)(=O)c2ccc3c(c2)C(C)(C)C(=O)N3C)c1 (centres unmarked),15.8
8,COc1ccc2nc(Nc3nc(CSc4ccc(C)cc4)cc(=O)[nH]3)nc(C)c2c1,5.9
9,Cc1ccc(C(C(=O)NCc2ccc(F)cc2)N(CCCO)C(=O)C2COc3ccccc3O2)o1 (centres unmarked),-7.88
10,O=C1NC2(CCCCC2)Cc2ccccc21,8.55
11,Cc1ccc(S(=O)(=O)/N=S(\C)C(C)C)cc1 (centres unmarked),14.4
12,Oc1cnn(-c2ccccc2)c1,5.96
13,CCCC(=O)Nc1cc(S(=O)(=O)N2CCCCC2)ccc1N1CCOCC1,12.5
14,CCOc1ccc(S(=O)(=O)N2CCCC(C(=O)N3CCOCC3)C2)cc1Cl (centres unmarked),9.84
15,CC(Oc1ccc(Cl)cc1)c1ccc(C#N)c(=O)[nH]1 (centres unmarked),-2.59
16,COc1ccc(NC2CC(=O)N(c3ccc(C(=O)O)cc3)C2=O)cc1 (centres unmarked),10.5
17,NC(=O)c1ccccc1NC(=O)CCCN1C(=O)CCC1=O,10.5
18,O=S(=O)(Nc1ccc(O)c2ccccc12)c1ccc(OC(F)(F)F)cc1,7.82
19,COc1cc(C(=O)NC(=S)Nc2ccccc2N2CCOCC2)cc(OC)c1OC,10.7
20,COc1ccc(N2CCN(C3CC(=O)N(Cc4ccccc4)C3=O)CC2)cc1 (centres unmarked),7.93
